Laboratory results from PubChem BioAssay AID2147 (National Center for Advancing Translational Sciences (NCATS), 2009).
The campaign covered roughly 230,000 compounds. About 3,600 (1.6%) were called active. This list was built around the results that the source calls inconclusive (neither active nor inactive); the mix of calls is not that of the screen. Calls follow the shape of the dose curve; as a rule, active = well fitted inhibition curve with a large enough effect (not every such curve was filed as active); inconclusive = small, poorly fitted or top-dose-only effect, or another doubt; inactive = no such curve, though single readings can be large or run the other way. Potencies beside an inconclusive call are fits to weak or partial responses and may not hold up.

molecular target: Lysine-specific demethylase 4E (Homo sapiens) (UniProt B2RXH2); test: qHTS Assay for Inhibitors of Human Jumonji Domain Containing 2E (JMJD2E); settings: JMJD2E catalytic domain, FDH-coupled NADH fluorescence (FDH is formaldehyde dehydrogenase); series mostly up to 57.1 µM
Also: nearly all actives have a fitted effect of over 50% in size.
Potency is read from the fitted curve at half-maximal effect; tags tell the direction and shape of the fitted curve.

Sequence of UniProt B2RXH2 (B2RXH2 whole entry, looked up, the tested form may be a part): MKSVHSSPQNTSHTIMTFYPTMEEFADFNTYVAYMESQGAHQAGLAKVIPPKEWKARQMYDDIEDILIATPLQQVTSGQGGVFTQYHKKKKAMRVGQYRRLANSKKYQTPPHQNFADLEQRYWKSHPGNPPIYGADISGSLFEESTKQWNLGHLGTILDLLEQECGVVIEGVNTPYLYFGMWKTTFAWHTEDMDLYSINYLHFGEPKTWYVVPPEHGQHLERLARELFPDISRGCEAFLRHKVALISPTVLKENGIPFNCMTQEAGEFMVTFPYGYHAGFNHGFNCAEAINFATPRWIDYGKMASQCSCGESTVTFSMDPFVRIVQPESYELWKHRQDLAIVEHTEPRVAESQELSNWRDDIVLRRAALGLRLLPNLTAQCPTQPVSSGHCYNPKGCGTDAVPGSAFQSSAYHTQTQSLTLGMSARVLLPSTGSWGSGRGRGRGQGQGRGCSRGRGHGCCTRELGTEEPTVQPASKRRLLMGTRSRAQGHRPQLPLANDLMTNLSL

SMILES | Potency
CCOC(=O)/C=C/c1nc(C(=O)OCC)c(C)c(=O)[nH]1 | inconclusive: 39.8 µM [inhibitor, single point]
O=C(O)c1ccccc1C(=O)NNc1ccc(F)cc1 | inactive
N#CC(C#N)=C(Nc1ccc(F)cc1)SCc1cccc(Br)c1 | inactive
CC(C)C[C@H](NC(=O)[C@@H]1Cc2ccccc2CN1C(=O)OC(C)(C)C)C(=O)NCC1CCC(C(=O)O)CC1 (stereo not given in full) | active: 25.1 µM
O=C(Cn1nnc(-c2ccccc2NC(=O)c2ccccc2F)n1)NCc1ccco1 | inconclusive: 39.8 µM [inhibitor, single point]
CC1(C)C2CCC(C2)C1(C)NC(=O)CNC1CCCCC1 (stereo not given) | inconclusive: 35.5 µM [inhibitor, single point]
Cc1cc(=S)nc(-c2ccccn2)[nH]1 | inconclusive: 12.6 µM [inhibitor, partial curve, poor fit]
CN(C)CCCO[C@H]1[C@@H]2OC(C)(C)O[C@@H]2O[C@@H]1[C@H](O)CO | inactive
CCn1c(N)c(C(=O)Nc2ccccc2C(=O)OC)sc1=S | inactive
COc1cc2c(cc1NCc1ccc3c(c1)OCO3)oc1ccccc12 | inconclusive: 28.2 µM [inhibitor, partial curve]
CCC(C)NCCOCCOc1ccc(Cl)c(C)c1C (stereo not given) | inconclusive: 39.8 µM [inhibitor, single point]
Cc1cc(=O)[nH]c(/N=C(\N)Nc2ccc(Oc3ccccc3)cc2)n1 | inactive
O=C(CCC1CCCN(C(=O)C2CCCC2)C1)NCc1ccc(F)c(F)c1 (stereo not given) | inactive
O=C1C2C3C=CC(C4CC34)C2C(=O)N1Cc1ccccc1 (stereo not given) | inactive
COC(=O)/C=C/C(C)=C/C=C/C(C)=C/C=C/C=C(C)/C=C/C=C(C)/C=C/C(=O)O | inconclusive: 39.8 µM [inhibitor, single point]
CCC1C(C#N)=C(SCC(N)=O)NC2=C1C(=O)CC(C)(C)C2 (stereo not given) | inconclusive: 22.4 µM [inhibitor, partial curve]
COc1ccc(Nc2ncnc3c2cnn3-c2cccc(C)c2)cc1OC | inconclusive: 35.5 µM [inhibitor, single point]
COC(=O)c1ccccc1NC(=O)CN(C)S(=O)(=O)c1cc(C)ccc1OC | inconclusive: 39.8 µM [inhibitor, single point]
COCCCNC(=S)Nc1ccc2nc3n(c(=O)c2c1)CCCCC3 | inconclusive: 20 µM [inhibitor, single point]
COc1ccc(NC(=O)CNC(=O)Cn2c(C)cc3ccccc3c2=O)c(OC)c1 | inconclusive: 31.6 µM [inhibitor, single point]
